Data: paper PMC6727465, “Discovery of 2-phenoxyacetamides as inhibitors of the Wnt-depalmitoleating enzyme NOTUM from an X-ray fragment screen” (MedChemComm, 2019)

Key:
NOTUM(81-451 Cys330Ser) [1] = molecular target: T1, NOTUM(81-451 Cys330Ser) (Homo sapiens, UniProt Q6P988, C330S); assay: biochemical
T1 sequence (Q6P988 81-451 C330S): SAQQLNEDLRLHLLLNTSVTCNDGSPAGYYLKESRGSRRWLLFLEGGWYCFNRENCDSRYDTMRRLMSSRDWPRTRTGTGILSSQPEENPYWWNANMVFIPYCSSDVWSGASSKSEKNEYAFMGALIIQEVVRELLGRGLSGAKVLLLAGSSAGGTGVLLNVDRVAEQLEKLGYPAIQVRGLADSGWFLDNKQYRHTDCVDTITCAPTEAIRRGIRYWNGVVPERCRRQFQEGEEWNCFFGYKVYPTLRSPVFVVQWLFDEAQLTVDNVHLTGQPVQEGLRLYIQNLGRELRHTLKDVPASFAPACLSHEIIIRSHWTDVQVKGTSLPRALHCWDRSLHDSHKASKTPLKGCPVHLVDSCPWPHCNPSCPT

NOTUM(81-451 Cys330Ser) [2] = molecular target: T1, NOTUM(81-451 Cys330Ser)

Row | Structure (SMILES) | IC50 (NOTUM(81-451 Cys330Ser) [1]) | LLE (NOTUM(81-451 Cys330Ser) [2]; lipophilic ligand efficiency, NOTUM activity against clog P) | decrease in activity (NOTUM(81-451 Cys330Ser) [2]; NMe linker replacing O linker, cf. 34)
1 | Cc1ccccc1NCC(=O)Nc1cccnc1 [Compound 4] | 60 µM | – | –
2 | Cc1ccccc1SCC(=O)Nc1cccnc1 [Compound 5] | 110 µM | – | –
3 | Cc1ccccc1N(C)CC(=O)Nc1cccnc1 [Compound 7] | 23 µM | – | –
4 | N#Cc1ccccc1OCC(=O)Nc1cccnc1 [Compound 11] | 120 µM | – | –
5 | Cc1cc(F)ccc1OCC(=O)Nc1cccnc1 [Compound 17] | 20 µM | – | –
6 | Cc1ccccc1OCC(=O)NCc1cccnc1 [Compound 25] | 100 µM | – | –
7 | Cc1ccccc1OCC(=O)Nc1ccc2cn(C(C)C)nc2c1 [Compound 38] | 0.032 µM | 3.5 | –
8 | Cc1ccccc1OCC(=O)Nc1ccc2ccncc2c1 [Compound 46] | 0.97 µM | – | –
9 | Cc1ccccc1N(C)CC(=O)Nc1ccc2cnn(C)c2c1 [Compound 53] | 5.7 µM | – | 25 fold
10 | Cc1ccccc1OCC(=O)N1CCc2ccccc2C1 [Compound 54] | 7.9 µM | – | –
